Test results taken from the supplement of paper PMC10126150.
Sequences with one replicate were seen in a single cluster, so their values are uncertain.

System: ATP
Test: switch fluorescence ratio, 500 uM ATP over buffer (Cy3 cluster intensity, sum of 5 cycles each) (fold (ratio)); higher = stronger signal-on switching upon ATP binding; sequences stand for … in TCGTCGGCAGCGTCAGATGTGTATAAGAGACAGTTTTTTTTTTTTTTTTTTTTTTTTT…TC
Details: aptamer strand: ATP DNA aptamer (quencher-CACCTGGGGGAGTATTGCGGAGGAAGG + anchor), 100 nM annealed; ATP concentration: 500 uM; one replicate
In short: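 Cy3-labelled switching-strand clusters on a modified Illumina MiSeq flow-cell were annealed to 100 nM quencher-labelled ATP aptamer, imaged in selection buffer, then imaged after 15 min with 500 uM ATP at 22 °C. Five buffer/ATP cycles ran, with NaOH stripping and re-annealing between them. The fluorescence ratio is summed target-cycle over summed buffer-cycle Cy3 intensity per cluster, averaged per switch-domain sequence. Clusters outside 100-1000 RFU were excluded.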
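Note: ATP exposure 15 min at 22 °C before imaging.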

Row | Sequence | switch fluorescence ratio
1 | AATGGTGAAC | 0.959
2 | TTAGGAACG | 1.04
3 | GGGGCGTTGC | 1.04
4 | ACGGTAGAGC | 1.01
5 | ATAGAGGATG | 1
6 | ACCATTCGG | 0.997
7 | AAGGGAAGTT | 1.01
8 | CCGGCAGTTT | 1.13
9 | CGACTTAATA | 1.26
10 | AAGCCCGGAT | 1.04
11 | CCCGACTGCT | 1.16
12 | TTATAGTGCG | 1.12
13 | TTGCTACGGC | 1.06
14 | TTTCGTGATC | 2.79
15 | GCTTAATCAA | 1.03
16 | TAGGTACTAC | 1.04
17 | AGAGCTGTTT | 0.992
18 | GCGAGGATGT | 1.01
19 | CTGAGGTCCG | 1
20 | TTTTTAGGCT | 1.02
21 | TAATGGGAGG | 0.965
22 | CGAGTTTATG | 1.04
23 | TTCCGCGCT | 1.11
24 | AATATTATTT | 1.01
25 | ATCTCGCAA | 5.53
26 | TCTGTAACTT | 1.02

Row | Sequence | switch fluorescence ratio
27 | CGGTTTATAC | 1.47
28 | GTTATCTACG | 1.04
29 | TTTAATGACC | 1.06
30 | ACGTTTACGT | 1
31 | CAAGCCAGCG | 1.03
32 | GCACTGTGCG | 1.03
33 | CTATAAAACA | 1.05
34 | GACGGTGGGG | 0.947
35 | GGCGTACTAA | 1.01
36 | TAGGCCAACT | 0.996
37 | GTGGAGCCTC | 1.05
38 | TGATGGGACA | 0.952
39 | CGCGTGAACT | 1.01
40 | TAGCACTAT | 1.09
41 | AATGAGGTGT | 0.971
42 | TGTGCTTATA | 0.996
43 | TTGGAAGGAA | 1.04
44 | ATTCACCAAC | 1.17
45 | CAGGGATCGT | 1.05
46 | ATGGTCTTCA | 0.988
47 | GTCCGCTGGG | 1.3
48 | AAAGTGAATA | 0.973
49 | AGTGCTCATG | 0.993
50 | ACATCGT | 0.986
51 | GTGTTCCCGA | 0.982
52 | TATGAGGACT | 1.01

Row | Sequence | switch fluorescence ratio
53 | GTGCGATCGT | 0.932
54 | ATTTTTGCTG | 1.06
55 | CGGGGAGAAG | 0.969
56 | TTAATCGCCA | 1.11
57 | CCTTGATGCG | 0.987
58 | CACTAGTCTA | 1.03
59 | GGTCTTCATG | 0.994
60 | CGATGCCGCT | 1.03
61 | TGATAGCGAT | 1.11
62 | TTCGATTTGT | 0.999
63 | CTATCAGCCA | 0.987
64 | CTCAGATGCA | 1.01
65 | AATCAAGTTT | 1.04
66 | ACTTAGGCA | 0.993
67 | TTTGGTGGCG | 0.997
68 | ATACCCAACT | 1.12
69 | GGCCAAACGG | 0.984
70 | AGGCCTTGTA | 0.987
71 | GGAGAGCTAG | 1.02
72 | GCCGTTGGCC | 1.02
73 | TGAATGGAGA | 0.959
74 | GACATTCAAG | 1
75 | CTGATGTAAT | 1.36
76 | CTAGTAATTG | 1.03
77 | CTACGGTAAT | 1.61
78 | TTAATGTGTA | 1.03

Row | Sequence | switch fluorescence ratio
79 | TATGTGGATA | 0.983
80 | CGCTGAGATA | 1.06
81 | AGTTCTGTAA | 0.985
82 | CGAGACACCT | 1.2
83 | TTTATGCGCT | 1.02
84 | TGTAGTCGTA | 1.09
85 | TAACAATGAC | 1.04
86 | TTCGGGGACC | 0.954
87 | CTGGTCACAA | 1.03
88 | ATAATTTCCG | 1.01
89 | TCCGCGCTGG | 1.59
90 | ACAATTGGGA | 1.02
91 | TGGAATGTGA | 1.05
92 | ATGGGCGGAG | 0.975
93 | TCGGTTACGG | 1.03
94 | CGCTTGAAG | 0.97
95 | CGTGATGGTC | 1.07
96 | GGTGCGGTCT | 1.03
97 | CTCGACAGGA | 1.03
98 | AGTAATTCTA | 1
99 | CGTCATTG | 1.04
100 | TAGGGCGC | 1
101 | TGACGGCGGT | 1.09
102 | CACATAGCCG | 1.19
103 | CAATCGCTGA | 1.04
104 | CGACATCACT | 1.32

Row | Sequence | switch fluorescence ratio
105 | ATGATTGCTT | 1.03
106 | GTTGAGACGA | 0.953
107 | TTTCTACGTC | 1.09
108 | AAGCCGAGTG | 0.993
109 | ATACGAGTTT | 1.02
110 | GTAGTCAACG | 1.03
111 | CGTGTGAGCT | 1.01
112 | GTGGCGGGTT | 0.976
113 | TATGCTAGGC | 1.06
114 | CGAACCTGG | 1.03
115 | CTGATAAGTA | 0.977
116 | TGGATGGCAT | 1.02
117 | GGTTGGGGCG | 0.983
118 | ACTCAATCGA | 1.02
119 | TTACTTGTT | 0.958
120 | GCACGATTGA | 1.06
121 | GATCCGATGG | 1
122 | GGGGGCTCAT | 0.975
123 | TTCCTAGTTG | 1.03
124 | GGCCTAGAAG | 1.02
125 | TAAACAGCGC | 1.01
126 | CATTAAGAGA | 0.966
127 | TTTCATGGA | 1.01
128 | CATTTATACA | 1.02
129 | CAAAGACTAT | 1.02
130 | AGAGGATACG | 1.05

Row | Sequence | switch fluorescence ratio
131 | CCAATTAGT | 0.983
132 | ATGTCCAGAG | 1.01
133 | CACTAGGTGG | 0.994
134 | TATACCCGCG | 1.08
135 | GGTCTTAAAC | 0.989
136 | CCTTTTAGG | 1.01
137 | CTAAGATACG | 1.22
138 | AATGTTGGC | 1.02
139 | TGTAGAAAAA | 0.966
140 | CACAGAGGGC | 0.979
141 | CGGCGCTTAA | 1.53
142 | CAGGTCGTCA | 0.984
143 | TTACCGGGGA | 0.99
144 | CTTGAGTGAG | 0.988
145 | GGGCTAGGTC | 0.988
146 | CCGGCCGGTT | 0.992
147 | AGAAATTTGT | 1.03
148 | TAACATTACA | 1.14
149 | TTGGACAAGG | 1.04
150 | ATTTAACAGC | 1.02
151 | AATATGGGTC | 0.948
152 | AAAACTTGGG | 1.03
153 | ATGGGGTGGA | 1.03
154 | TTTTCTTAT | 1.03
155 | TGGGATTTG | 0.977
156 | GGCTACGTAT | 1.08

Row | Sequence | switch fluorescence ratio
157 | AAAGGGCCCC | 0.948
158 | GCCTGAATTA | 1
159 | TGGCGATCAA | 1.01
160 | TCAGCCTGGG | 1.01
161 | CATAGGCT | 1.01
162 | CAGCTCGTGG | 0.945
163 | GCCGAGCTTT | 1.03
164 | AATTGTGGCC | 1.01
165 | TCCGTTTGCG | 1.01
166 | GGACTGGCTG | 0.972
167 | CGTGAGCGTC | 1.01
168 | CGTACGTGAT | 1.55
169 | TAAGTATGG | 1
170 | GATTGTTATC | 1
171 | AGCGTGGATG | 1.04
172 | GGGATCACGC | 1.04
173 | TAAACCAGGG | 1.87
174 | CACCTACTTT | 1.27
175 | AATCGGTCAT | 1.04
176 | TCGTTGTCTT | 0.968
177 | TGATAGAGGG | 0.937
178 | ATAAGCAAAT | 1.07
179 | GGGCCATCTG | 0.938
180 | GTCATAAGTA | 1.01
181 | CGGCGGTTGC | 0.995
182 | GTTGAGCCCA | 1.01

Row | Sequence | switch fluorescence ratio
183 | GCTGTAGAAA | 1
184 | GGCAGACACG | 1.04
185 | ACCCGTAGAG | 1.06
186 | GCGAAGGCGC | 1.03
187 | ACTGTTACAT | 1.25
188 | TGCATTGAGG | 1.02
189 | AGACGGATTT | 1.07
190 | ACCATGCTTT | 0.996
191 | CCGCCCACGA | 4.83
192 | CCTGGACAGT | 1
193 | GATTGTCGGA | 0.995
194 | TCGTTGAATT | 0.983
195 | TGGGTCCACT | 1.01
196 | TAGGCCTTGT | 1
197 | TTGATTAACC | 1.03
198 | TAAGCCAACT | 0.972
199 | AGTTGCACTA | 0.959
200 | AAGGTCTGGA | 0.916
201 | GACAGGCTTG | 0.983
